According to publication PMC5572923:
Results are given in words; binding and its absence hold for the method and conditions named. In cells and extracts the contact can be indirect. Some entries that bind do so weakly or less than the wild type. Where a sequence is shown, tags or fusion partners need not be part of it.

Chains of the proteins cited; added tags and fusions are not shown.
UniProt O60346: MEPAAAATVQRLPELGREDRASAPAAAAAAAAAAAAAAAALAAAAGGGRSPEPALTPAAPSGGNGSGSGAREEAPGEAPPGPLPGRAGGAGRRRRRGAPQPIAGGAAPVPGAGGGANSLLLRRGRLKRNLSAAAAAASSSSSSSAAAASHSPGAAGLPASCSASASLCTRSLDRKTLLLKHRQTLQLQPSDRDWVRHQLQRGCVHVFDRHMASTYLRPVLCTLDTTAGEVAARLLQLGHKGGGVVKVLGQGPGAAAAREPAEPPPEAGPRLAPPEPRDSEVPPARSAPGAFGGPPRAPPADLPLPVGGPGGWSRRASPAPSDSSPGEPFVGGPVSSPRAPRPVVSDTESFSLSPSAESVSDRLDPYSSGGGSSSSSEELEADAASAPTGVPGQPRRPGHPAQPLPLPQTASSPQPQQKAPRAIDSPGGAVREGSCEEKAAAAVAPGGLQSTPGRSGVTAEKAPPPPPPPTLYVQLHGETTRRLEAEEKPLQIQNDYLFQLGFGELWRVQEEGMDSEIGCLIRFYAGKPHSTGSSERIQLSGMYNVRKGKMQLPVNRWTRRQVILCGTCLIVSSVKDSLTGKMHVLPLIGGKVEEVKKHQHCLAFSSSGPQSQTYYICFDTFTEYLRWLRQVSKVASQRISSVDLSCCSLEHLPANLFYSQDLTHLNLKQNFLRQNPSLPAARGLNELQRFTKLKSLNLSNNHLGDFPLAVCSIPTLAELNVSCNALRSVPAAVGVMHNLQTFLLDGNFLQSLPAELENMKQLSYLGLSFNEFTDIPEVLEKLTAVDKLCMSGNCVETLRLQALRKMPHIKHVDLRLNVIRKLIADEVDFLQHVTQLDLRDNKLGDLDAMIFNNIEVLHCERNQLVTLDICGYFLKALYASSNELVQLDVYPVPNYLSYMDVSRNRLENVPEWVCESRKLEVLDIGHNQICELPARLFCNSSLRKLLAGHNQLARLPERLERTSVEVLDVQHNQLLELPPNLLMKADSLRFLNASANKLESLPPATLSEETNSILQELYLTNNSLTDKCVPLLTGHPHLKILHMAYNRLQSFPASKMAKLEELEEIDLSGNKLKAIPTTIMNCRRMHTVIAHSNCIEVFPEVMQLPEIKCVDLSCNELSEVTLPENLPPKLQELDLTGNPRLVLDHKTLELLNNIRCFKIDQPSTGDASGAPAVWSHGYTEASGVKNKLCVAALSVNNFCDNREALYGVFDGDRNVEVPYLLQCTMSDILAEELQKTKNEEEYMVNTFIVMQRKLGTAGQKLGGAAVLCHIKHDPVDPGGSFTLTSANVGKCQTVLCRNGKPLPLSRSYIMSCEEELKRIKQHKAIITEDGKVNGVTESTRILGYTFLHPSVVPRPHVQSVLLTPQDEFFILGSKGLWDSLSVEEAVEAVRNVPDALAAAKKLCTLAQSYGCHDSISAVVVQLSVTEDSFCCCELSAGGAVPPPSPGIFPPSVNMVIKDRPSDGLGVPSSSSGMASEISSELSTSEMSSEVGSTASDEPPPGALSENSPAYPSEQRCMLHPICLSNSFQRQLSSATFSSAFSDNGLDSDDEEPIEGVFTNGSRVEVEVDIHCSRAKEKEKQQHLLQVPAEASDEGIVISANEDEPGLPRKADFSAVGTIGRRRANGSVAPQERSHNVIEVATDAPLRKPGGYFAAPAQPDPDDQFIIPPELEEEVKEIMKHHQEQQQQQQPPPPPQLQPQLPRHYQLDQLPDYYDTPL

Assays:
[1] = biological target: T1, SFB-SGT1 (triple-tagged SGT1, wild type), in HeLa (human) (UniProt Q9Y2Z0); assay: condition: only later stages of mitosis, post-kinetochore assembly; co-IP; HeLa cells expressing SFB-SGT1, nocodazole arrest and release, later stages of mitosis (post-kinetochore assembly); streptavidin beads; blots with PHLPP1 and RNF41 antibodies (Fig. 7A)
T1 sequence: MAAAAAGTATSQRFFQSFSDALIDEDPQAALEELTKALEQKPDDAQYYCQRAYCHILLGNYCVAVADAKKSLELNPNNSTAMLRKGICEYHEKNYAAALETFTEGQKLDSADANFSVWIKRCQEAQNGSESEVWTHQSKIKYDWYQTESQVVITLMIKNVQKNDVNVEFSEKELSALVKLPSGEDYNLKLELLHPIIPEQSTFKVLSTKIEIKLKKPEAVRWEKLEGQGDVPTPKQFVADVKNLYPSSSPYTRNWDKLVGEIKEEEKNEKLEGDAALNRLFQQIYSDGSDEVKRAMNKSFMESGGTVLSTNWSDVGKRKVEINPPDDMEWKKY

[2] = biological target: T1, SFB-SGT1 (triple-tagged SGT1, wild type), in HeLa (human); assay: co-IP; HeLa cells expressing SFB-SGT1, nocodazole arrest and release, early stages of mitosis; streptavidin beads; blots with PHLPP1 and RNF41 antibodies (Fig. 7A)
[3] = biological target: T1, SFB-SGT1 (triple-tagged SGT1, wild type), in HeLa (human); assay: co-IP; HeLa cells expressing SFB-SGT1, nocodazole arrest and release, later stages of mitosis (post-kinetochore assembly); streptavidin beads; blots with PHLPP1 and RNF41 antibodies (Fig. 7A)

PHLPP1, endogenous in HeLa (from UniProt O60346 1-1717) (enzyme)
binding [1]: no binding
binding [2]: binds
binding [3]: binds
